The results in this text go back to patent US20240050391A1, “COMPOSITIONS AND METHODS FOR NEUROPROTECTION IN NEONATAL HYPOXIC-ISCHEMIC ENCEPHALOPATHY” (The Trustees of Columbia University in The City of New York, priority 2020, published 2024).

The test system of the assay is neonatal mice (10-day old) subjected to hypoxic-ischemic (HI) injury. Nature of the assay: Infarct volumes in neonatal mice after HI injury treated with n-3 DG or TG emulsions or protectins (Example 2, FIG. 3 and 4). The protocol: FIG. 3. Infarct volumes in neonatal mice (10-day old) subjected to hypoxic-ischemic (HI) injury and treated with saline as vehicle, n-3 triglyceride (TG), n-3 diglyceride (DG) emulsions. n=15-17. Values are means with SD. Dose=0.375 mg/g bw.
FIG. 4. […] Values are means with SD.
Acute treatment with triglyceride lipid emulsions containing both EPA and DHA or DHA alone (tri-DHA) provides neuroprotection after hypoxic-ischemic brain injury by acting within the initial minutes/hours of reperfusion. […] The neuroprotection afforded by tri-DHA acute administration was also associated with increased content of DHA in brain mitochondria and of DHA-derived bioactive mediators, such as neuroprotectin D1 (NPD1) and D-series resolvins, in cerebral tissue. Thus, the neuroprotective action afforded by direct administration of NPD1 after hypoxic-ischemic injury was further investigated.
Values are means with SD. Reductions in infarct volume were dose-dependent.

For the molecule `CC/C=C\C[C@H](O)\C=C/C=C/C=C/[C@H](O)C/C=C\C/C=C\CCC(=O)O` [NPD1, neuroprotectin D1], for the setting “after hypoxic-ischemic injury”, the “mitochondria-related cell death pathways” value is listed as “reduced mitochondria-related cell death pathways” and the “mitochondrial Ca2+ buffering capacity” value is reported as “preserved mitochondrial Ca2+ buffering capacity”. Moreover, the cerebral infarct volumes entry (direct administration after hypoxic-ischemic injury, compared to the control group) is “significant reduction in cerebral infarct volumes”.

As for `CC/C=C\C[C@H](O)\C=C/C=C/C=C/[C@H](O)C/C=C\CCCCCC(=O)O` [PD1 n-3 DPA], the “reductions in infarct volume” value (5, 10 or 20 ng per animal, FIG. 4) is given as “dose-dependent”. Also, the “neuroprotection (decreasing infarct size after hypoxic-ischemic brain injury), concentration needed relative to D1 derived from DHA” value (FIG. 4) is recorded as “at lower concentrations than neuroprotection D1 derived from DHA”.
